The values below come from patent publication US12371459B2, “Antimicrobial peptide derived from Pseudin-2 peptide and uses thereof” (INDUSTRY-ACADEMIC COOPERATION FOUNDATION, CHOSUN UNIVERSITY, priority 2019, dated 2025).

“And” between values parts separate entries of the source, which are not always exact repeats. Identical values can stand only once. Like-named read-outs stand apart in the source and are kept apart here.

The term viability denotes a read-out of living cells in per cent, often relative to untreated cells. Low values mean more harm to the cells, high ones less harm to the cells.

Data set [1] has as its system erythrocytes of a mouse (Balb/c). Briefly: Erythrocyte hemolytic activity. The conditions noted are these: 1 hour at 37° C. As to the method: To compare the cytotoxicity among the peptides that are produced by the method of Example 1, erythrocyte hemolytic activity of the synthesized peptide was measured.
After that, the amount of hemoglobin contained in a supernatant collected by centrifuge at 1,000×g was determined by measuring the absorbance at a wavelength of 414 nm. As a control to be used as a reference for cell disruption level, the supernatant collected by a treatment with 1% Triton X-100 (Sigma, USA) and a reaction for 1 hour at 37° C. was used to measure the absorbance. By setting the resulting absorbance value at 100% of the erythrocyte hemolytic activity, hemolysis of each peptide was calculated using the following equation 1. Erythrocyte disrupting ability (%)=(Absorbance A−Absorbance B)/(Absorbance C−Absorbance B)×100 Equation 1 (in the above equation, Absorbance A indicates the absorbance of a reaction solution treated with each peptide, in which the absorbance is measured at a wavelength of 414 nm; Absorbance B indicates the absorbance of a reaction solution treated with PBS, in which the absorbance is measured at a wavelength of 414 nm; and Absorbance C indicates the absorbance of a reaction solution treated with 1% Triton X-100, in which the absorbance is measured at a wavelength of 414 nm).

Data set [2] is described as follows: Cytotoxicity in normal cell line (MTT). The settings on record: human, HaCaT keratinocyte cells. As to the method:
To determine the cytotoxicity of the peptides produced by the method of Example 1 in normal cell line, cytotoxicity was measured by using human keratinocyte cell line (HaCaT cell line, Dr. N E. Fusenig, Heidelberg, Germany).
Specifically, HaCaT cells, which have been cultured in DMEM medium containing 10% FBS (fetal bovine serum), were aliquoted in a microtiter plate to have 2×10^5 cells per well. […] Twenty-four hours later, a reaction solution containing 0.5 mg/ml MTT (thiazolyl blue tetrazolium bromide) dissolved in phosphate buffered saline (PBS) was added in an amount of 100 μl to each well and the reaction was allowed to occur for 4 hours. After that, the supernatant was discarded, and, by dissolving MTT crystals that are formed by adding 200 μl DMSO (dimethyl sulfoxide), the absorbance at 560 nm was measured to determine the cell survival ability.

For data set [3], the system named is Escherichia coli. Put plainly: Flow cytometry, propidium iodide, effect on bacteria membrane. Format: cell-based. The conditions noted are these: peptide at MIC; for Membrane disrupting ability compared with Pseudin-2: flow cytometry. As to the method: (§1) After that, the supernatant was removed by centrifuge (10,000 rpm) and stained with propidium iodide (PI, concentration of 10 μg/ml) for 30 minutes at 4° C. Thereafter, unbound propidium iodide was removed by centrifuge, and the problem of cell aggregation phenomenon was solved by adding physiological saline (PBS) in an amount of 1 ml.
A general note: Flow cytometry measures light scatter and fluorescence of single cells or particles in a stream.

Data set [4] relates to Staphylococcus aureus. The data set is described as above. The class given is cell-based. The settings on record: peptide at MIC; for Membrane disrupting ability compared with Pseudin-2: flow cytometry. As to the method:
as §1

The test system of data set [5] is plasmid DNA (pRSETB). Put plainly: Binding between antimicrobial peptide and DNA (agarose gel electrophoresis). The settings on record: plasmid DNA 300 ng, peptide/DNA ratio 0.25:1 to 4:1, 10 minutes at 37° C. As to the method:
Specifically, plasmid DNA (pRSETB, 300 ng) and the peptide were reacted for at different ratio (i.e., peptide/DNA ratio was 0 (DNA only), 0.25:1, 0.5:1, 1:1, 1.5:1, 2:1, 3:1, or 4:1) for 10 minutes at 37° C. After that, electrophoresis was carried out using 1% agarose gel followed by staining with ethidium bromide (EtBr) and UV determination.

For data set [6], the system named is Escherichia coli. Briefly: Scanning electron microscopy (SEM), membrane damage. The class given is cell-based. The conditions noted are these: peptide at MIC, 1 hour at 37° C. As to the method:
(§2) As a control, cells applied with no peptide were used. After the culture, the cells were collected, and, by using 2.5% glutaraldehyde, the bacterial cells were treated for 18 hour at 4° C. After carrying out washing two times with PBS buffer solution, the fixed cells were dehydrated in stepwise manner by using 100% ethanol and diluted ethanol (50%, 70%, 90% and 100%). After the dehydration followed by drying, the specimen was coated with platinum and determination was made by low vacuum scanning electron microscopy.

The subject of data set [7] is Staphylococcus aureus. Described as above. The conditions noted are these: peptide at MIC, 1 hour at 37° C. Format: cell-based. As to the method: as §2
Data set [8] deals with Pseudomonas aeruginosa 4891.
Data set [9] deals with interleukin-1 beta (IL-1β) mRNA. The settings on record: skin lesion infected with P. aeruginosa 4891, treated with peptide, relative to β-actin.
The subject of data set [10] is interleukin-6 (IL-6) mRNA. The settings on record: skin lesion infected with P. aeruginosa 4891, treated with peptide, relative to β-actin.
Data set [11] deals with tumor necrosis factor-alpha (TNF-α) mRNA. The settings on record: skin lesion infected with P. aeruginosa 4891, treated with peptide, relative to β-actin.

For the compound `CC[C@H](C)[C@H](NC(=O)[C@H](C)NC(=O)[C@H](CCC(=O)O)NC(=O)[C@H](Cc1c[nH]cn1)NC(=O)[C@@H](NC(=O)[C@H](CCCCN)NC(=O)[C@H](CCC(N)=O)NC(=O)[C@H](Cc1ccccc1)NC(=O)[C@@H](NC(=O)[C@H](CCCCN)NC(=O)[C@H](CCCCN)NC(=O)[C@H](CC(C)C)NC(=O)[C@H](C)NC(=O)[C@H](CC(N)=O)NC(=O)[C@H](CC(C)C)NC(=O)CN)C(C)C)[C@@H](C)CC)C(=O)N[C@@H](CCCCN)C(=O)N[C@@H](CCCCN)C(=O)N[C@H](C(=O)N[C@@H](CC(N)=O)C(=O)N[C@@H](CC(N)=O)C(=O)N[C@@H](Cc1c[nH]cn1)C(=O)N[C@H](C(=O)N[C@@H](CCC(N)=O)C(N)=O)C(C)C)[C@@H](C)CC` [Pse-11G/18L-K], the Erythrocyte disrupting ability in data set [1] (peptide concentration 3.13 μM) was 0%; in data set [1] (peptide concentration 6.25 μM), 0%; in [1] (peptide concentration 12.5 μM) it was 0.7%; in [1] (peptide concentration 25 μM), 1.3%; in data set [1] (peptide concentration 50 μM), 6.6%; in data set [1] (peptide concentration 100 μM), 18.0%. In data set [2], this compound registered a viability at 24 h, 3.13 µM of 100%. Moreover, the viability at 24 h, 6.25 µM in data set [2] came to 100%. Further, the viability at 24 h, 12.5 µM in [2] worked out at 100%. In addition, the viability at 24 h, 25 µM in [2] turned out to be 100%. Besides, the viability at 24 h, 50 µM in [2] came out at 100%. The same compound gave a viability at 24 h, 100 µM in data set [2] of 91.3%.
On to `CC[C@H](C)[C@H](NC(=O)[C@H](CCCCN)NC(=O)[C@H](CCCCN)NC(=O)[C@@H](NC(=O)[C@H](C)NC(=O)[C@H](CCC(=O)O)NC(=O)[C@H](Cc1c[nH]cn1)NC(=O)[C@@H](NC(=O)[C@H](CCCCN)NC(=O)[C@H](CCC(N)=O)NC(=O)[C@H](Cc1ccccc1)NC(=O)[C@@H](NC(=O)[C@H](CCCCN)NC(=O)[C@H](CCCCN)NC(=O)[C@H](CC(C)C)NC(=O)[C@H](C)NC(=O)[C@H](CC(N)=O)NC(=O)[C@@H](N)CC(C)C)C(C)C)[C@@H](C)CC)[C@@H](C)CC)C(N)=O` [Pse-T4], for which the Erythrocyte disrupting ability amounted to 0% in [1] (peptide concentration 3.13 μM); 0% in data set [1] (peptide concentration 6.25 μM); 0% in data set [1] (peptide concentration 12.5 μM); 0% in data set [1] (peptide concentration 25 μM); 0% in data set [1] (peptide concentration 50 μM); 1.3% in [1] (peptide concentration 100 μM). This compound also showed a viability at 24 h, 3.13 µM in [2] of 100%. In addition, the viability at 24 h, 6.25 µM in [2] was determined as 100%. This compound also registered a viability at 24 h, 12.5 µM in [2] of 100%. Further, the viability at 24 h, 25 µM in data set [2] was 100%. The viability at 24 h, 50 µM in data set [2] is 100%. Further, the viability at 24 h, 100 µM in data set [2] was 96.5%. In addition, the “Membrane disrupting ability compared with Pseudin-2” value in [3] and in [4] was “higher membrane disrupting ability than Pseudin-2” in each case. In addition, in data set [5], the “Binding to DNA” value is “showed binding to DNA”.
For the compound `CC[C@H](C)[C@H](NC(=O)[C@H](CC(C)C)NC(=O)[C@H](CCCCN)NC(=O)[C@@H](NC(=O)[C@H](C)NC(=O)[C@H](CCC(=O)O)NC(=O)[C@H](Cc1c[nH]cn1)NC(=O)[C@@H](NC(=O)[C@H](CCCCN)NC(=O)[C@H](CCC(N)=O)NC(=O)[C@H](Cc1ccccc1)NC(=O)[C@@H](NC(=O)[C@H](CCCCN)NC(=O)[C@H](CCCCN)NC(=O)[C@H](CC(C)C)NC(=O)[C@H](C)NC(=O)[C@H](CC(N)=O)NC(=O)[C@@H](N)CC(C)C)C(C)C)[C@@H](C)CC)[C@@H](C)CC)C(N)=O` [Pse-T2], the Erythrocyte disrupting ability stood at 0% in [1] (peptide concentration 3.13 μM); 0% in [1] (peptide concentration 6.25 μM); 0% in [1] (peptide concentration 12.5 μM); 0% in data set [1] (peptide concentration 25 μM); 4.7% in [1] (peptide concentration 50 μM); 15.2% in data set [1] (peptide concentration 100 μM). Also, the viability at 24 h, 3.13 µM in [2] came out at 100%. In data set [2], this compound registered a viability at 24 h, 6.25 µM of 100%. The compound also yielded a viability at 24 h, 12.5 µM in data set [2] of 100%. The compound also registered a viability at 24 h, 25 µM in [2] of 100%. In data set [2], this compound gave a viability at 24 h, 50 µM of 95.3%. The compound also returned a viability at 24 h, 100 µM in data set [2] of 79.4%. In addition, the Membrane disrupting ability was determined as 92% in data set [3] (1 hour at 37° C., PI staining) and 96% in data set [4] (1 hour at 37° C., PI staining). The “Membrane disrupting ability compared with Pseudin-2” value in data set [3] and in data set [4] was “higher membrane disrupting ability than Pseudin-2” in each case. In addition, the “Binding to DNA” value in data set [5] was “showed binding to DNA”. The “Membrane damage by SEM” value was “rougher than the cells treated with Pseudin-2” in data set [6]; “higher damage and disruption of cell membrane” in data set [7]. In addition, the “Bacteria count of Pseudomonas aeruginosa 4891 in lesion, less than the PBS treatment” value is “at least 80%” in data set [8] (on Day 3, homogenate of lesion tissues) and “at least 95%” in data set [8] (on Day 6, homogenate of lesion tissues). In [9], the “mRNA expression of IL-1β” value was “suppressed”. The “mRNA expression of IL-6” value in [10] is “suppressed”. The “mRNA expression of TNF-α” value in [11] is recorded as “suppressed”.
With `CC[C@H](C)[C@H](NC(=O)[C@H](C)NC(=O)[C@H](CCC(=O)O)NC(=O)[C@H](Cc1c[nH]cn1)NC(=O)[C@@H](NC(=O)[C@H](CCCCN)NC(=O)[C@H](CCC(N)=O)NC(=O)[C@H](Cc1ccccc1)NC(=O)[C@@H](NC(=O)[C@H](CCCCN)NC(=O)[C@H](CCCCN)NC(=O)[C@H](CC(C)C)NC(=O)[C@H](C)NC(=O)[C@H](CC(N)=O)NC(=O)[C@H](CC(C)C)NC(=O)CN)C(C)C)[C@@H](C)CC)C(=O)N[C@@H](CCCCN)C(=O)N[C@@H](CC(C)C)C(=O)N[C@H](C(=O)N[C@@H](CC(N)=O)C(=O)N[C@@H](CC(N)=O)C(=O)N[C@@H](Cc1c[nH]cn1)C(=O)N[C@H](C(=O)N[C@@H](CCC(N)=O)C(N)=O)C(C)C)[C@@H](C)CC` [Pse-11G-K], the Erythrocyte disrupting ability is 17.3% in data set [1] (peptide concentration 3.13 μM); 49.4% in data set [1] (peptide concentration 6.25 μM); 69.8% in data set [1] (peptide concentration 12.5 μM); 84.0% in data set [1] (peptide concentration 25 μM); 97.8% in data set [1] (peptide concentration 50 μM); 100% and 99.2% in [1] (peptide concentration 100 μM). The viability at 24 h, 3.13 µM in [2] came to 100%. Further, in data set [2], the viability at 24 h, 6.25 µM was 100%. The compound also came in with a viability at 24 h, 12.5 µM in [2] of 100%. Moreover, the viability at 24 h, 25 µM in data set [2] is 73.8%. In [2], the viability at 24 h, 50 µM is 50.2%. The viability at 24 h, 100 µM in data set [2] turned out to be 36.4%.
